Here are results for 43 compounds from article PMC4336329 (PLoS ONE, 2015).

SMILES strings stand for the structures. Screen size: about 310,000 compounds; about 2,200 (0.71%) showed an effect of 50% or more. Effects have a minus sign here. Some of the results follow.

The target of this test is human ether-à-go-go-related gene (hERG) potassium channel (human, UniProt Q12809). Description: primary screen, population patch clamp on CHO cells stably expressing hERG.
human ether-à-go-go-related gene (hERG) potassium channel, sequence (Q12809 whole entry, looked up): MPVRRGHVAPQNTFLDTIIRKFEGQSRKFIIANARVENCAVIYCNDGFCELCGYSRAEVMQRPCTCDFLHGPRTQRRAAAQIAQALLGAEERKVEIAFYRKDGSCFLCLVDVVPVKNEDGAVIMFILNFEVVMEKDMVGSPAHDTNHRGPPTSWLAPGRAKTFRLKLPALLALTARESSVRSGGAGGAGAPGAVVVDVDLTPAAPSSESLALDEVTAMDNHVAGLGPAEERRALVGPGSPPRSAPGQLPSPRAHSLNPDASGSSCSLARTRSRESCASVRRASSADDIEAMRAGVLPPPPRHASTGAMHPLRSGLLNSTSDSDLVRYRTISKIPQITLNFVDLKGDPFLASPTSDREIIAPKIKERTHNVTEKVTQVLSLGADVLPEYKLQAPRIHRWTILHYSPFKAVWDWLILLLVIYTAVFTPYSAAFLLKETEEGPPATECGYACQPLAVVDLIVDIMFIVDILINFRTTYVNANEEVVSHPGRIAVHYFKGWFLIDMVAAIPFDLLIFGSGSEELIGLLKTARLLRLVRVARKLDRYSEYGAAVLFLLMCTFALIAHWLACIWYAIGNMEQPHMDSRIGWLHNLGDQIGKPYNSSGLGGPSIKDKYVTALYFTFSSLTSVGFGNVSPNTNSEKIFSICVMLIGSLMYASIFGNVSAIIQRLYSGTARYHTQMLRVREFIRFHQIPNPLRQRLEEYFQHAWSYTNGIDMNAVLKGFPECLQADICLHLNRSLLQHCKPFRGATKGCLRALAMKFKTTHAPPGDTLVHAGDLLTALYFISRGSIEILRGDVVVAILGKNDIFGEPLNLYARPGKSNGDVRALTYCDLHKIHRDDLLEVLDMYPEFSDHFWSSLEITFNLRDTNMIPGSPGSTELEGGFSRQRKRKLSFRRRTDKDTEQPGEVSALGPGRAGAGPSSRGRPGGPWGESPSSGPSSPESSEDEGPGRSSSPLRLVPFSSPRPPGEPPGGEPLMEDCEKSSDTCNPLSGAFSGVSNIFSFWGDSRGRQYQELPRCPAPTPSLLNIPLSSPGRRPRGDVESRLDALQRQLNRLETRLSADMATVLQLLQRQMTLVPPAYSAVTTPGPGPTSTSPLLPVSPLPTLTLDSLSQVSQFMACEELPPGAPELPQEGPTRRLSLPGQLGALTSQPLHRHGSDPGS
As for `CCn1cc(S(=O)(=O)CC(=O)Nc2ccc(C)cc2)c2ccccc21`, the “hERG current change (%, negative = inhibition) at 1uM” value was determined as 16.4%.
Then `CCN1CCN(c2nc3c(c(=O)[nH]c(=O)n3C)n2CCCc2ccccc2)CC1`, with -81.5%; and `COc1cc(C=O)ccc1OCCCCOc1ccccc1[N+](=O)[O-]`, with 8.61%.
Next, `CCN(C(=S)NCc1ccccc1)c1cccc2ccccc12`: 11.3%.
Next, `C#CC(=O)N(c1ccc(OC)c(OC)c1)C(C(=O)NC1CCCC1)c1cccs1.Cl` (stereo not shown): 7.21%; `Cc1ccccc1COC(=O)CCC1=NS(=O)(=O)c2ccccc2N1`: 11.8%; `COc1cc(/C=C/C(=O)OCC(=O)Nc2nnc(-c3ccccc3)o2)cc(OC)c1OC`: 1.2%.
In the case of `O=C(COc1ccc(-n2cnnn2)cc1)Nc1ccccc1Cl`, the “hERG current change (%, negative = inhibition) at 1uM” value was determined as 19%.
On to `CCC1(CC)NC(=O)N(CC(=O)OCC(=O)c2ccccc2OC)C1=O`, for which the “hERG current change (%, negative = inhibition) at 1uM” value came to 4.8%.
For the compound `Cc1cccc(N2CCN(C(=O)NC3CCCCC3)CC2C)c1` (stereo not shown), the “hERG current change (%, negative = inhibition) at 1uM” value turned out to be 13.1%.
Next, `COc1ccc(/C=N/NC(=O)CSCC(=O)Nc2ccccc2)cc1`: 12.3%; `CCOc1ccccc1NC(=O)C(c1ccccc1)N1CCN(CC(=O)N2CCOCC2)CC1` (stereo not shown): -79.7%.
Next, `Cc1ccc(S(=O)(=O)N2CCOCC2)cc1NC(=O)COC(=O)CNC(=O)c1ccc(Oc2ccccc2)cc1`: 6.43%; `COCCN1C(=O)c2oc3ccccc3c(=O)c2C1c1ccc(O)c(OC)c1` (stereo not shown): 3.25%; `O=C(Nc1ccc(F)cc1)C1CCN(C(=O)c2ccc(F)cc2)CC1`: -20.8%.
For the compound `Cn1cnnc1SCC(=O)NC1CCCCC1`, the “hERG current change (%, negative = inhibition) at 1uM” value is reported as 2.66%.
Turning to `CCN(CCO)c1ccc(NC(=S)Nc2cccc(S(=O)(=O)N(C)C)c2)cc1`, the “hERG current change (%, negative = inhibition) at 1uM” value is 10.4%.
`Cc1ccc(S(=O)(=O)N(CC(=O)N2CCOCC2)CC(=O)N2CCOCC2)cc1`: the “hERG current change (%, negative = inhibition) at 1uM” value was determined as 8.74%.
For `CCOC(=O)c1ccc(NC(=O)NCCc2cnc[nH]2)cc1`, the “hERG current change (%, negative = inhibition) at 1uM” value amounted to 10.2%.
In the case of `CC1(C)CC(=O)C=C(Nc2cccc(Cl)c2Cl)C1`, the “hERG current change (%, negative = inhibition) at 1uM” value was -0.621%.
With `CC(=O)N/N=C(\N)c1nonc1N`, the “hERG current change (%, negative = inhibition) at 1uM” value is on record as 13.9%.
As to `COC(=O)C1=COC(OC2OC(CO)C(O)C(O)C2O)C2C1C=CC2(O)CO` (stereo not shown), the “hERG current change (%, negative = inhibition) at 1uM” value is 5.93%.
Take `O=C(O)COCC(=O)N1CCCN(c2nccc(C(F)(F)F)n2)CC1`: the “hERG current change (%, negative = inhibition) at 1uM” value was found to be 17.7%.
Next, `Cc1[nH]n(-c2ccc(Cl)cc2)c(=O)c1C=Nc1ccc(S(=O)(=O)N2CCOCC2)cc1`: 5.73%.
Then `CCOC(=O)c1cnn(-c2nc(SC)nc3sc4c(c23)CCCC4)c1N`, with 9.29%; and `COc1ccccc1N1CCN(C(=O)c2c(-c3ccccc3Cl)noc2C)CC1`, with -9.28%.
Next, `Cc1cccc(N=C2NC(=O)/C(=C/c3cccnc3)S2)c1`: 10.4%.
Turning to `Cc1ccc(S(=O)(=O)N2CCC[C@H]2C(=O)OC(C)C(=O)Nc2ncc(Cl)cc2Cl)cc1` (stereo partly shown), the “hERG current change (%, negative = inhibition) at 1uM” value is recorded as -1.56%.
Next, `COc1ccc(OC)c(-c2[nH]nc3c2C(c2ccco2)C(C#N)=C(N)O3)c1` (stereo not shown): 1.42%; `Cc1ccc(CNC(=O)CCn2nc(-c3ccc(Cl)cc3)ccc2=O)cc1`: -3.01%.
Next, `COCCN1Cc2cccc(C(=O)NCC3CCN(CC(C)C)C3)c2C1=O` (stereo not shown): -2.8%; `COCCN=C1N[C@@H](c2cccc(C(F)(F)F)c2)C(C(=O)OC)=C(C)N1Cc1ccccc1`: 8.73%; `CC(=O)Nc1ccc(Nc2cc(C)nc3c(-c4ccccc4)c(C)nn23)cc1`: 12.8%.
As to `CCOC(=O)C1CCN(S(=O)(=O)CCNC(=O)c2cccc(OC)c2)CC1`, the “hERG current change (%, negative = inhibition) at 1uM” value was found to be 1.22%.
Then `Cn1cnnc1SCC(=O)NNC(=O)COc1ccc(Cl)cc1`, with 13.6%; and `CC(=O)NC(c1cccc([N+](=O)[O-])c1)c1ccc2cccnc2c1O` (stereo not shown), with 10.9%; and `Br.Cc1c(Nc2scc(-c3ccccc3)[n+]2-c2ccccc2)c(=O)n(-c2ccccc2)n1C`, with 2.02%.
Next, `Cc1c(NC(=O)COC(=O)c2ccc(S(=O)(=O)N3CCOCC3)cc2)c(=O)n(-c2ccccc2)n1C`: 16.5%.
Next, `COCc1cc(=O)[nH]c(SCC(=O)c2ccccc2)n1`: 4.78%; `CCOc1cc(/C=N/NC(N)=O)cc(Br)c1OCc1ccccc1F`: 16.1%; `Cc1ccc(S(=O)(=O)CCN2CCC(O)(c3ccccc3)CC2)cc1`: 10.7%.
On to `COc1ccc(N(CC(C)C)S(=O)(=O)c2nnc(NC(=O)c3ccco3)s2)cc1`, for which the “hERG current change (%, negative = inhibition) at 1uM” value was found to be 21.4%.
Turning to `CCc1nc(SCC(=O)N2c3ccccc3Sc3ccccc32)c2ccccc2n1`, the “hERG current change (%, negative = inhibition) at 1uM” value is 4.74%.
